Source: publication PMC5253658
Results are given in words; binding and its absence hold for the method and conditions named. Binding seen in cells or lysates may run through a third protein. Some binding calls cover weakened binding; strength is not graded here.

Sequences of proteins named here, by UniProt entry; tags and fusion partners are left off. Residues count along the entry.
UniProt P25911: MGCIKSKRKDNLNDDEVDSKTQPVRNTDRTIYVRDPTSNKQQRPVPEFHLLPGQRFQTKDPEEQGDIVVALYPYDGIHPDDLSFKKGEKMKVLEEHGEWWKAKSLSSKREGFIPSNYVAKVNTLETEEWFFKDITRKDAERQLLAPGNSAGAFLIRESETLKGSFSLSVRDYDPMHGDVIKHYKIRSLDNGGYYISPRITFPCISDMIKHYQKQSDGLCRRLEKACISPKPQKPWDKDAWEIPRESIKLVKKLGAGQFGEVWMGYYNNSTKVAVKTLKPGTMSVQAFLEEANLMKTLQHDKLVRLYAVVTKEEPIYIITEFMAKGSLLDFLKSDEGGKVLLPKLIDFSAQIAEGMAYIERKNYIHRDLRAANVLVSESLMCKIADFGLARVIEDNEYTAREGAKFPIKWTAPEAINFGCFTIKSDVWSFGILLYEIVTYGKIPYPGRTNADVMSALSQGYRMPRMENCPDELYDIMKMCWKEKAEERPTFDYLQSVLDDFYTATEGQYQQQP
UniProt Q9QUK6, residues 26-835: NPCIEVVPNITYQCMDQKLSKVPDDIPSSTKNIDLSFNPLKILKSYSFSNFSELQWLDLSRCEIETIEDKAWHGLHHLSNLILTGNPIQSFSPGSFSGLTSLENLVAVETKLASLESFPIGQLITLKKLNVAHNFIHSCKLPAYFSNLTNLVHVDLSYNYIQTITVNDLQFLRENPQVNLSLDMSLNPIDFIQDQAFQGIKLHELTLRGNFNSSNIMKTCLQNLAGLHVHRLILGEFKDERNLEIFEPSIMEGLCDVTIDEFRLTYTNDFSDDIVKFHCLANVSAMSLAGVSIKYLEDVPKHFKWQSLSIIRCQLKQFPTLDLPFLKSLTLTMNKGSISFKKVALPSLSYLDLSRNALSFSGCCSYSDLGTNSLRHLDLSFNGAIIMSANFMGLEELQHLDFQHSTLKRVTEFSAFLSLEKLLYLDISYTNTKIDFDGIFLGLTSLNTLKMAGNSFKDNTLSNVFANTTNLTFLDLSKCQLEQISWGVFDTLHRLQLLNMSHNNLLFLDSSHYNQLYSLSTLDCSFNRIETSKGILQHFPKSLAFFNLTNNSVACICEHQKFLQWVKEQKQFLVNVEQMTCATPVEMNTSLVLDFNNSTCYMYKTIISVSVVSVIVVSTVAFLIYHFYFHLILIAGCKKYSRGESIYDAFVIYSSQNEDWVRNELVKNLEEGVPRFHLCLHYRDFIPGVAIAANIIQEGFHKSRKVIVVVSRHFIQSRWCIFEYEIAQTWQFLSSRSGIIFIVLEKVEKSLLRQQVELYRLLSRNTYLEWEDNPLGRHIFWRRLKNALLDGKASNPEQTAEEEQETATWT

What was measured:
[1] = molecular target: V5-tagged full-length mouse SCIMP, stably expressed in RAW264.7 (mouse) (UniProt Q3UU41); assay: co-IP; RAW264.7 stably expressing V5-SCIMP (wild type or Y96F), treated with LPS for the indicated times; immunoprecipitation with V5 antibody, immunoblot; Lyn and Grb2 bound with and without LPS
[2] = molecular target: GST-SCIMP-T1 Y96F (mouse) (UniProt Q3UU41); assay: pull-down; GST-SCIMP Sepharose beads with lysates of LPS-activated (30 min) RAW264.7 macrophages, 1 h at 4 °C; 20 mM Tris pH 7.4, 150 mM NaCl, 1% NP-40; immunoblot for TLR4 and Lyn; Lyn also tested in extracts of unstimulated cells; only the target purified
[3] = molecular target: GST-SCIMP-T2 (C terminal region of murine SCIMP, amino acids 93-150) (mouse) (UniProt Q3UU41); assay: as above
[4] = molecular target: GST-SCIMP-T1 (entire intracellular region of murine SCIMP, amino acids 29-150) (mouse) (UniProt Q3UU41); assay: as above
[5] = molecular target: GST-SCIMP-T1 Y120F (mouse) (UniProt Q3UU41); assay: as above
[6] = molecular target: GST-SCIMP-T1 Y58F (mouse) (UniProt Q3UU41); assay: as above
[7] = molecular target: full-length mouse SCIMP Y96F, stably expressed in RAW264.7 (mouse) (UniProt Q3UU41); assay: co-IP; RAW264.7 stably expressing V5-SCIMP (wild type or Y96F), treated with LPS for the indicated times; immunoprecipitation with V5 antibody, immunoblot; Lyn and Grb2 bound with and without LPS
[8] = molecular target: GST-SCIMP-T2 (C terminal region of murine SCIMP, amino acids 93-150) (mouse) (UniProt Q3UU41); assay: condition: only extracts of unstimulated macrophages; pull-down; as a5, extracts of unstimulated (control) macrophages; only the target purified
[9] = molecular target: GST-SCIMP-T1 (entire intracellular region of murine SCIMP, amino acids 29-150) (mouse) (UniProt Q3UU41); assay: as above
[10] = molecular target: endogenous SCIMP of mouse macrophages (mouse (endogenous in RAW264.7 and BMM)) (UniProt Q3UU41); assay: co-IP; immunoprecipitation of endogenous SCIMP from lysates of RAW264.7 cells (with or without SU6656) or wild-type BMM stimulated with LPS for 5 min; immunoblot for TLR4; also MyD88-deficient cells
[11] = molecular target: endogenous SCIMP of mouse macrophages (mouse (endogenous in RAW264.7 and BMM)) (UniProt Q3UU41); assay: co-IP; as a9, BMM from Lyn^−/− mice stimulated with LPS for 5 min
[12] = molecular target: V5-tagged full-length mouse SCIMP, stably expressed in RAW264.7 (mouse) (UniProt Q3UU41); assay: co-IP; LPS-activated cells; details only in Supplementary Fig. 5d, not shown

Row | Substance | binding [1] | binding [2] | binding [3] | binding [4] | binding [5] | binding [6] | binding [7] | binding [8] | binding [9] | binding [10] | binding [11] | binding [12]
1 | Grb2 adaptor protein, endogenous in mouse macrophages (from UniProt Q60631 1-217) | binds |  |  |  |  |  |  |  |  |  |  | 
2 | Lyn tyrosine kinase, endogenous in mouse macrophages (from UniProt P25911 1-512) (enzyme) | binds | binds | no binding | binds | binds | binds |  |  |  |  |  | 
3 | endogenous TLR4 of mouse macrophages (from UniProt Q9QUK6 26-835) (receptor) | binds |  | binds | binds | binds | binds | no binding | no binding | no binding | binds | no binding (condition: BMM from Lyn^−/− mice) | binds
